Assay results reported in the supplement of paper PMC11417369.
± gives the standard deviation of the averaged measurements. Some of the results follow.

These sequences were tested on PfAP2-I AP2 domain 3 (GST-tagged) (assay: gcPBM binding intensity (ln(normalized median fluorescence intensity)); higher = stronger DNA binding).
Procedure, shortened: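 DNA-binding domains from P. falciparum, fused to GST and produced in E. coli, were put on an Agilent 4 × 180k double-stranded probe array for 1 h in 1× PBS holding 1% milk, 0.2 mg/ml BSA, 0.5% salmon testes DNA and 0.03% Triton X-100. Probes were primer-extended, 36 bp long and drawn from intergenic genomic regions, with negative controls included. After Alexa488 anti-GST antibody detection and a 488 nm scan, binding intensity was set as the highest Masliner-normalised natural-log median intensity across replicate spots of either probe orientation.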

| Sequence | gcPBM binding intensity (ln) |
| --- | --- |
| AATAAAATATATTCCTGTACATATGATTCTTTTTTT [XGTACX_site7980] | 7.63 ± 0.49 |
| TTTACATATTTATATACACACTTTTGCGTGCGTGGT [CACACA_site6647] | 7.94 ± 0.51 |
| ACTATACAGTTATACACACACATATATCTATAATAT [CACACA_site6283] | 8.16 ± 0.51 |
| AATGTACAAATACGTACACACATATATATATATATA [CACACA_site1542] | 9.44 ± 0.35 |
| GTATAAAATATTTTATGTACATAATATATATATATA [XGTACX_site2489] | 9.01 ± 0.16 |
| AAATAAAGGAAATGTATATCAACATTAAAATAAGGC [CACACA_negctrl_site441] | 8.08 ± 0.68 |
| TTTTACAATAACAATACACACTATAATATGTAAATA [CACACA_site6772] | 7.88 ± 0.43 |
| CATTTAAAATTTGTTTGTACATATATATATATATAT [XGTACX_site6729] | 9.34 ± 0.67 |
| ATATATATATATATATGTACTTATGTCATCATTAAA [XGTACX_site5316] | 9.65 ± 0.38 |
| TATATGTATGTTTGTGTGCACACATAAATATTATAT | 9.79 ± 0.042 |
| ACGAAGTATATGAATACACACATATTTTTAATGAAA [CACACA_site4070] | 7.4 ± 0.67 |
| TTTTTAATCAGAAATATTTATTAAAGAATTTTATAG [GTGCAC_negctrl_site725] | 7.32 ± 0.34 |
| ATATACATAATTTGGAGTACAATATCATATAAATAT [XGTACX_site6334] | 7.99 ± 0.11 |
| AGTAAATTTGATGGTCGTACAAAAAAAAAGTAGGAC [XGTACX_site2600] | 8.12 ± 0.64 |
| CTTTTTTTTTTGGGGGTGCATGCAAGACATATATTT [GTGCAC_site9660] | 10.2 ± 0.11 |
| ACATAACTTATATATACACACAATACAAATATATAT [CACACA_site2774] | 7.92 ± 0.56 |
| ATAATTTCTATTTCACAAAAAAAAAAAAAAAAAAAA [CACACA_negctrl_site1012] | 8.1 ± 0.98 |
| ACTAAAAGGCTTAAATGTACATATTATATATATATA [XGTACX_site5897] | 9.09 ± 0.14 |
| GAATAATTAAAAGGTAGTACAAAGGTTATCAAAAGG [XGTACX_site8496] | 8.15 ± 0.52 |
| GATATGATTATGTGATGGTGTTTTTGATAGATATTT [CACACA_negctrl_site1445] | 7.76 ± 0.49 |
| AGAAAACCGAAAGAGACACACAACATGTCGATTTAG [CACACA_site3764] | 7.48 ± 0.85 |
| TTGTTCTTTTGAAAGGTGCAAAAGAAAAATAATTAA | 11.1 ± 0.54 |

| Sequence | gcPBM binding intensity (ln) |
| --- | --- |
| ATATATATATGTTAGGTGCATATATATTTTGTGGAT [GTGCAC_site9964] | 10.7 ± 0.59 |
| ATAAAAACTACATTCACACAAAAAAAAATCTACAAA [CACACA_site6109] | 7.55 ± 0.46 |
| AATAATATTAATAAAAGTACATGTGTAATATATATA [XGTACX_site5922] | 8.46 ± 0.67 |
| ATAAAGATAATATATGCACACATATAAATATATAAA [CACACA_site9153] | 8.91 ± 0.33 |
| ATATATATAATATATTGTACATATAATATATATATA [XGTACX_site4792] | 8.84 ± 0.042 |
| ACATCTAGGCTTATTTTATGATACATGTGAATATAT [TGCATGCA_negctrl_site325] | 7.67 ± 0.72 |
| GTTTTTGAGTAGTACACACACAATAAGGATGGATTC [CACACA_site3192] | 8.29 ± 0.19 |
| TCAATAAATATACATACATGCATACATACATACATA [TGCATGCA_site197] | 7.99 ± 0.54 |
| GAACATTTATTGTGTGTGCACAATTCTTTTTTAACC [GTGCAC_site9697] | 10.2 ± 0.14 |
| TGTGTTAATATGAATTTAAACATAAATAAATAAATA [CACACA_negctrl_site1589] | 7.84 ± 0.72 |
| AATTTTCAATAGTATACACACAATTATATATATATA [CACACA_site1116] | 9.37 ± 0.38 |
| TCTTTTCTCGGAAGGGTGCAAGGAATTAATGAAATA [GTGCAC_site9706] | 9.64 ± 0.13 |
| TATATATGTAGACGTTGTACTTTTTTGTAAGTTTAA [XGTACX_site5638] | 7.79 ± 0.26 |
| CATGACATATCCTGTAGTACAACGTATATATAAGAT [XGTACX_site2577] | 7.8 ± 0.61 |
| AAAATAAAATCATAAAGTACAAAAAGAAAATAAAAA [XGTACX_site7376] | 7.92 ± 0.38 |
| TGTGTCAAGTTTAATAAACGCATATAATATATATGA [CACACA_negctrl_site607] | 7.64 ± 0.49 |
| TTTAAATTTTTATATTGTACTTTATTTATTTATTTA [XGTACX_site869] | 7.56 ± 0.51 |
| ATGTTTAATTAAATATGTACTTATTATATTATATGT [XGTACX_site8137] | 7.74 ± 0.41 |
| TTTAATTTTTATATAACACACATATTGTAATTATGT [CACACA_site4566] | 7.57 ± 0.41 |
| AGGAATCTACATATATGTACATATATTGATATATTT [XGTACX_site137] | 7.68 ± 0.45 |
| AATGTTTAATATAACGCATGCCTTAATATAGAATGC [TGCATGCA_site463] | 8 ± 0.74 |
| TATTTTTATAAAAACTGTACATAATAAATAAAAATA [XGTACX_site4743] | 7.86 ± 0.41 |

| Sequence | gcPBM binding intensity (ln) |
| --- | --- |
| AATCAAAGTAATTTAACACACAATTTTAATACTGTT [CACACA_site7169] | 7.55 ± 0.58 |
| TTATATGTTTCTTCACGTACGTATAAAAATGAACTT [XGTACX_site1764] | 7.94 ± 0.58 |
| TATCATGTGCGTGCGTGTACTTAACACACATAATAT [XGTACX_site2404] | 8.31 ± 0.54 |
| TCATTTATTTTAAGGTGTACCGTTTAAAATCACAAA [XGTACX_site3243] | 7.78 ± 0.32 |
| ATATTGACAAATATTACACACATATATATATATATA [CACACA_site4079] | 9.31 ± 0.41 |
| TTGTTCATTATGCACAGTACATAAAAAGTAAAAAAA [XGTACX_site2403] | 10 ± 0.65 |
| TTTTTTTGCGCGGGAAGAATAAAATTTATAGAATAT [TGCATGCA_negctrl_site306] | 8.31 ± 0.63 |
| CAGACATTAATAAGTAGTACACAATAATTGACTAGG [XGTACX_site854] | 8.11 ± 0.31 |
| AATTTACACGTACGTGTACACACAAAAATATGTTTT [CACACA_site8242] | 8.55 ± 0.34 |
| TTTCTAAATAATATACACAAAAAAATAAAACACTAA [TGCATGCA_negctrl_site43] | 8.09 ± 0.38 |
| TGAAAAGATAAAAAATGTACATATATATTATATATA [XGTACX_site5678] | 7.82 ± 0.54 |
| ATACACAATTATTTTCCTATTATGCAAGCAAATTTA [CACACA_negctrl_site1176] | 8 ± 0.65 |
| GTTTAACTGTTTTATACACACAATGTAGACAATAAA [CACACA_site8967] | 7.84 ± 0.5 |
| TAAATACATTGACACACACACAAATATGTACATACA [CACACA_site7371] | 8.04 ± 0.31 |
| ACTTGATTACACAACCACAAGTAATTGAAATTATTT [XGTACX_negctrl_site297] | 8.05 ± 0.57 |
| GTACAAAAAAAGTGTACACAAAGTAAGACTTTAATT [CACACA_site5068] | 8.26 ± 0.43 |
| CACTGTAAATAGAAAGTGCAAAAATTGTAAATAAAA [GTGCAC_site9980] | 9.75 ± 0.26 |
| AGTAATAATATAATTTGTACATATATATATTATAAA [XGTACX_site7138] | 7.65 ± 0.3 |
| TACAAAAATGTAGTCACACATATGTATACTTTTATG [CACACA_site5607] | 7.49 ± 0.44 |
| AGTTTTATGTAGTGTTGTACTTTATACAAATATATA [XGTACX_site990] | 7.87 ± 0.35 |
| TTTCTAATTTATATCACACACATATATAAATAGTAA [CACACA_site6156] | 7.91 ± 0.44 |
| ATATATATAATTTAAAGTACATATTTAAGAATGAAA [XGTACX_site2238] | 8.06 ± 0.49 |

| Sequence | gcPBM binding intensity (ln) |
| --- | --- |
| GACATTAAAATGAAATATACATATATATGTATATAT [TGCATGCA_negctrl_site601] | 7.63 ± 0.43 |
| TTACATTTTTGAAATAGATACATACACGTGTATGTA [CACACA_negctrl_site1311] | 7.58 ± 0.58 |
| AAAATTAACCGTAACACACACACATATATATATATA [CACACA_site3964] | 9.61 ± 0.4 |
| TATATGTTTACTTAATGTACTTACATTTTTATAACA [XGTACX_site1100] | 7.67 ± 0.49 |
| AAACAAAAAAACTACAGTACTTTTTTCAATTCCCCT [XGTACX_site7541] | 7.8 ± 0.49 |
| TTATTAATTTTTATTTTTAAATCACAAAAGATATAA [CACACA_negctrl_site787] | 7.43 ± 0.4 |
| ACATAAATAATAAAAACACACATATGTACTTATATA [CACACA_site8581] | 7.84 ± 0.18 |
| CATATTTGTATATGCACACATAAATTTTTCCATTTC [CACACA_site3467] | 9.31 ± 0.26 |
| AAATTTTTAAACAGCACACATAAATATAATATATAT [CACACA_site2208] | 8.27 ± 0.21 |
| TCTTGTATACGGCATGCATGTTAGCACATACGGACA [TGCATGCA_site146] | 8.12 ± 0.72 |
| TTTTTAAAACCTTACATACACACAAATATATATATA [CACACA_site678] | 9.19 ± 0.057 |
| TGAATTCATAGCAGTTGTACATTGCATGAAGAAACG [XGTACX_site3312] | 8.01 ± 0.58 |
| TGTTCCGAAGGTTGTACACACATAGAAATATACATA [CACACA_site3874] | 7.98 ± 0.44 |
| AATACTTTTTATTTAGTGCATAAGAAAATATAAATC [GTGCAC_site9875] | 10.9 ± 0.44 |
| TATAAAATATGTATGAGGAATAAAATTAAAAAAAAA [TGCATGCA_negctrl_site178] | 7.62 ± 0.67 |
| AAAAAAAAAAATTCGGTGCAATGTAATTAATGTAAA [GTGCAC_site9588] | 9.675 ± 0.078 |
| TGGTAATACACATACACACACACATACACATATATA [CACACA_site7312] | 8.22 ± 0.34 |
| AATTGAAAAATCAGCACACACACAAATACATACATA [CACACA_site3232] | 8.09 ± 0.4 |
| GCTATATATTACAATCGTACAATATATATATATATA [XGTACX_site6730] | 9.04 ± 0.59 |
| ATATATATATATATTACACACATGTGCAATTAAAAT [CACACA_site1778] | 9.79 ± 0.43 |
| AATATAAGAATATATACACACATAAATACATACATA [CACACA_site4128] | 7.63 ± 0.45 |
| CCTTTATAAAAAAGTAGTACACAATGAATTTATAAT [XGTACX_site5523] | 8.1 ± 0.3 |
